# Over roughly 33,000 sequences, “E-score (-0.5 to 0.5)” has its median near -0.012; the highest 2% begin near 0.29. The list shows a part of the results.
# Target: T1, Ybr033w (UniProt P38073)
# T1 sequence: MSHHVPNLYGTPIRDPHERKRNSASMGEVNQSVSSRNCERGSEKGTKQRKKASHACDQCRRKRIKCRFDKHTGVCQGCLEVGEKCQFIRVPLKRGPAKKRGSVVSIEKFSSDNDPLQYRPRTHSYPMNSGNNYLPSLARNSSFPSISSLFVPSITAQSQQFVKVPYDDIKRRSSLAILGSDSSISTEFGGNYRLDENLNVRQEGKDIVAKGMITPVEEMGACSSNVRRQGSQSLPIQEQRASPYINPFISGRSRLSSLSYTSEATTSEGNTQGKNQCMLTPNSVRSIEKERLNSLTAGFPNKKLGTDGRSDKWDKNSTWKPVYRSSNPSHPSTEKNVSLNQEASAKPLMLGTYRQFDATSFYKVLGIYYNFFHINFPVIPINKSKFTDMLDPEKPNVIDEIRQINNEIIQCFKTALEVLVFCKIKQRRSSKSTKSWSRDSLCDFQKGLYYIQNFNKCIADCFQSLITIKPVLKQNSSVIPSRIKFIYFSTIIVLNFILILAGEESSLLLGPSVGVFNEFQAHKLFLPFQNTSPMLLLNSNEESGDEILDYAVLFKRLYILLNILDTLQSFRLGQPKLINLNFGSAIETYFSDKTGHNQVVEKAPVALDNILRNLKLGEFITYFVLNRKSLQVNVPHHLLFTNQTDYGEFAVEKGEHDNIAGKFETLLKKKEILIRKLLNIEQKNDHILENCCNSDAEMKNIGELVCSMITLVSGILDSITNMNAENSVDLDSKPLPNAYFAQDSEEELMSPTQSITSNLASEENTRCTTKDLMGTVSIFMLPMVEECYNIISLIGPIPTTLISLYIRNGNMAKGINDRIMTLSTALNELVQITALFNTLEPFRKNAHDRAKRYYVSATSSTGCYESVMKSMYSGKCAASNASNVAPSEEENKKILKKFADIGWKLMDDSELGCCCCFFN
# Test: PBM E-score (8-mer binding enrichment) (E-score (-0.5 to 0.5)); higher = stronger / more preferred TF binding; most listed sequences are background and not binding sites
# Settings: protein concentration: 200 nM; construct: GST-full length
# In short: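 The E-score, a modified Wilcoxon-Mann-Whitney statistic, was computed by the Universal PBM Analysis Suite for every ungapped eight-base word pooled with its reverse complement. Scans behind it were normalised with masliner after bound GST-tagged yeast transcription factors were detected with fluorescent anti-GST. The proteins, at about 100-200 nM, had been applied to universal all-10-mer Agilent arrays made double-stranded by primer extension.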
row,Sequence,PBM E-score
1,CCGTATTC,-0.0621
2,GAGAGGGA,-0.289
3,ATCCCTAC,0.159
4,CAATAGAC,0.00862
5,AGCTAACA,0.0799
6,CCGTTAGG,-0.109
7,AGGCCAAT,-0.0717
8,ACATCCCA,0.0545
9,GACGCCCA,-0.184
10,AAGGCGTG,-0.2
11,CGACCCTC,-0.184
12,GGCTTTGA,0.0919
13,AACTAAGG,0.0802
14,CTAATAAA,0.28
15,GAGAAGCA,-0.0833
16,AGGCGAAC,-0.159
17,TGTGAACA,0.0644
18,TACGTAAA,0.141
19,GTCGACAC,-0.126
20,CATCGTAC,0.0156
21,CGGGTCAA,-0.0721
22,CACCTTAA,-0.00695
23,GTGTTGGA,-0.0271
24,TGGTCAAA,0.226
25,CCAGCCCC,-0.236

row,Sequence,PBM E-score
1,AATTATGG,0.0687
2,ATATTCAG,0.1
3,ATGAGTCA,-0.0786
4,CCCACCAG,-0.142
5,ACGGGACG,-0.222
6,AATCAGGG,-0.103
7,GTCAGCGA,-0.163
8,ATGAATTG,0.246
9,GCACCCCA,-0.164
10,AGGTCTAA,0.063
11,ACATGCCC,0.00011
12,ACAATCGC,0.115
13,CCCGTAGA,-0.206
14,ACCACGGT,-0.168
15,CAAGTCCG,-0.0949
16,AAATATGT,0.252
17,AAAATACT,0.301
18,CCAATGGG,-0.304
19,AGACCTTA,0.091
20,TATAATAA,0.318
21,TTTCCAAA,0.204
22,AGATTACG,0.0369
23,AATTTATG,0.317
24,GATTTTGA,0.161
25,CACGGCCG,-0.311

row,Sequence,PBM E-score
1,CATACGCA,0.156
2,AGGACGAC,-0.212
3,GTTGATGA,0.207
4,ACTCATGA,0.143
5,CATTCTCA,0.111
6,TATATAAA,0.282
7,ACCTCACC,-0.0696
8,CATCCGCA,0.156
9,CGACGACG,-0.226
10,CTTTATTA,0.191
11,TGGGTCAA,-0.109
12,AGGCAAGA,-0.0369
13,AAACTTAT,0.379
14,ACTCGCGC,-0.142
15,ATCTCTTC,0.0612
16,GAGAGTTA,-0.092
17,CGAAAATA,0.23
18,CCATTACC,-0.0903
19,AGATCAGC,0.0383
20,CAAGCTAG,-0.0383
21,CGCGACGA,0.0136
22,AGAGTAGA,0.0714
23,AGGTCGCC,-0.249
24,CAAACACA,0.241
25,CACGTTCC,-0.0658

row,Sequence,PBM E-score
1,ATGAAGCG,-0.253
2,CATCTAGC,-0.023
3,ACCGGTTC,-0.229
4,AGCGTGAC,-0.158
5,CAGGAACC,-0.122
6,CTCTTCCC,-0.162
7,CACGTCAA,-0.0938
8,AATTGGTC,0.156
9,AGATCTAT,0.171
10,ATATCCAT,0.196
11,ACGCCATG,-0.0752
12,AAGCTTGG,-0.0215
13,AACCACCT,0.0762
14,CGCTGGTA,0.00123
15,AGGAGGAA,-0.00188
16,AACGATCG,0.132
17,ATACTGGG,-0.198
18,AACTAGTC,0.0207
19,ACCCAAGT,0.0221
20,AACAACGC,-0.0677
21,CGGTCCAG,-0.287
22,ATATATGA,0.0895
23,AATATTAA,0.349
24,AGCCTAAT,0.0669
25,GACGTACC,-0.0667

row,Sequence,PBM E-score
1,CTTTCGTA,-0.0115
2,ACGCTAGG,-0.26
3,GCCAGGCA,-0.0766
4,GTATGATA,0.234
5,CACCCTTA,-0.0756
6,ACGTCAAA,0.06
7,CGGGTACC,-0.326
8,ATCCGTCC,-0.122
9,GAAACTTC,0.112
10,ATTTCCAC,0.241
11,ATTAAAGG,0.193
12,AGCTCTTG,-0.0846
13,ACGAACCG,-0.0547
14,CCCTTACC,-0.131
15,ACGGCGGC,-0.224
16,AGTGCTGA,-0.0389
17,AAGTATCG,0.0646
18,CCCAGCCC,-0.342
19,CCGCTAAA,-0.117
20,GGATCCAA,0.0247
21,GCATTGCC,-0.0687
22,CGCGGAAG,-0.0837
23,GGAACGTA,-0.056
24,AATAACTC,0.233
25,AATAGTTC,0.294

row,Sequence,PBM E-score
1,ACCGGTGC,-0.265
2,CGATCATC,0.00087
3,TTGCACAA,0.129
4,AGGCTAGG,-0.254
5,AAGGCGGT,-0.0232
6,AGCATGTG,0.013
7,CATGATGA,0.114
8,TACGCGAA,-0.0299
9,AAGGGGGA,-0.298
10,AGGTCTTG,-0.128
11,CGGAGGAA,-0.048
12,TGGCAACA,0.0334
13,ATTGTATA,0.273
14,AATCCAGT,0.15
15,CAACAGGC,-0.14
16,TATTTCAA,0.338
17,CCTTAGGA,-0.0302
18,AGGGGTCC,-0.343
19,ACCGTTTG,0.0292
20,CGCCCAGA,-0.174
21,TGAGCGCA,-0.0394
22,AGGGCCCC,-0.36
23,CCTGGCGA,-0.0733
24,TACCGTCA,-0.0481
25,AAAGTTGC,0.0307

row,Sequence,PBM E-score
1,TAGCTCAA,0.175
2,CATTGGGC,-0.222
3,GACTTCAC,-0.0135
4,ATCCTTCA,0.146
5,GCGAGCGC,-0.154
6,GCACTCAC,-0.0579
7,GGCTTAAA,0.0524
8,CCACGTTC,-0.138
9,ATAACAGC,0.11
10,TGAAGCCA,0.0247
11,AAGCTGGT,-0.0671
12,CTCTCAAA,0.162
13,GGTAAGGA,0.00938
14,ATTGCTTG,0.2
15,CGTCCACC,-0.2
16,AAAACAAT,0.192
17,AATAATAA,0.399
18,GTCCAAGA,-0.224
19,TCACGCCA,-0.081
20,AAGTACCA,0.0744
21,AGACTCCA,-0.095
22,TAGTTGAA,0.307
